Reference: patent publication US9346764B2, “Imidazolidinedione compounds and their uses” (HINOVA PHARMACEUTICALS INC., priority 2011, dated 2016)
pIC50: −log10 of the molar value.

Tests used:
[1] = system: human prostate cancer LNCaP cells; experiment: Inhibition of the growth of prostate cancer cells (MTT), LNCaP; type: cell-based; details: R1881 added, 96 hours
Protocol: (§1) The ability of compounds to inhibit the growth of prostate cancer cells was tested:
(§2) First, the human prostate cancer LNCaP (purchased from ATCC, USA) and 22RV1 (purchased from SIBS) cells were transferred to a RPMI1640 culture medium containing 10% charcoal-stripped fetal bovine serum (FBS). After cultured for three days, the cells were digested with 0.25% trypsin and counted through trypan blue staining. The cells were plated, with 100 μL cell suspension containing 5000 cells per well. 200 μL medium was added to the wells around the cell plate for avoiding edge effects.
(§3) The next day, 6 drug concentrations was prepared (48.6 μM, 19.44 μM, 7.776 μM, 3.11 μM, 1.24 μM, 0.5 μM) before administration, and 100 μl, of corresponding compound at corresponding concentration was added into each well of a cell plate. The cell plate was placed in a cell incubator for 30 min, 10 μL of 4 nM R1881 was added into each well and homogeneously mixed. Upon the addition of R1881, the cell plate was placed in a cell incubator and incubated at 37° C., under 5% CO2 for 96 hours. Afterwards, 40 μL of MTT (prepared in PBS, concentration is 2.5 mg/mL) was added into each wells, and incubated at 37° C. for 2 hours. The supernatant was sucked off, and 100 μL of DMSO was added into each well. The plate was shaken by a vibrator for 10 min for dissolving formazan. The plate was read at 570 nm wavelength using a microplate reader in the unit of OD. The inhibition rate of test compounds was calculated with the following equation: IR(%)=(ODcontrol−ODsample)/(ODcontrol−ODblank)×100%
(§4) The inhibition rate curve of test compounds was plotted using the software XLFit (Formula 205), which can calculate the 50% inhibition rate, i.e. IC50.

[2] = system: human prostate cancer 22RV1 cells; experiment: Inhibition of the growth of prostate cancer cells (MTT), 22RV1; type: cell-based; details: R1881 added, 96 hours
Protocol: as §1, §2, §3, §4

Structure (SMILES) | pIC50 [1] | pIC50 [2]
[2H]c1cc(C(=O)NC([2H])([2H])[2H])c(F)c([2H])c1N1C(=S)N(c2ccc(C#N)c(C(F)(F)F)c2)C(=O)C1(C)C [Example 8] | 6.00 | 4.73
[2H]C([2H])([2H])NC(=O)c1ccc(N2C(=S)N(c3ccc(C#N)c(C(F)(F)F)c3)C(=O)C2(C)C)cc1F [Example 6, 4-{7-[4-cyano-3-(trifluoromethyl)phenyl]-5,5-dimethyl-4-oxo-2-thio-1-imidazolidinyl}-2-fluoro-N-trideuteromethylbenzamide] | 6.00 | 4.87
CNC(=O)c1ccc(N2C(=S)N(c3ccc(C#N)c(C(F)(F)F)c3)C(=O)C2(C)C)cc1F [Example 4, 4-{7-[4-cyano-3-(trifluoromethyl)phenyl]-5,5-dimethyl-4-oxo-2-thio-1-imidazolidinyl}-2-fluoro-N-methyl-benzamide, reference compound] | 5.05 | 4.51
[2H]c1cc(C(=O)NC)c(F)c([2H])c1N1C(=S)N(c2ccc(C#N)c(C(F)(F)F)c2)C(=O)C1(C)C [Example 7, 4-{7-[4-cyano-3-(trifluoromethyl)phenyl]-5,5-dimethyl-4-oxo-2-thio-1-imidazolidinyl}-3,5-dideutero-2-fluoro-N-methyl benzamide] | 5.66 | 4.71

Next, values leading:

pIC50 [1] | pIC50 [2] | Structure (SMILES)
5.83 | – | [2H]C([2H])([2H])NC(=O)c1ccc(N2C(=S)N(c3ccc(C#N)c(C(F)(F)F)c3)C(=O)C2(C([2H])([2H])[2H])C([2H])([2H])[2H])cc1F [Example 10, 4-{7-[4-cyano-3-(trifluoromethyl)phenyl]-5,5-hexadeuterodimethyl-4-oxo-2-thio-1-imidazolidinyl}-2-fluoro-N-trideuteromethyl benzamide]
5.56 | 4.81 | [2H]c1cc(C#N)c(C(F)(F)F)c([2H])c1N1C(=O)C(C)(C)N(c2ccc(C(=O)NC)c(F)c2)C1=S [Example 13, 4-{7-[4-cyano-3-trifluoromethyl-2,6-dideuterophenyl]-5,5-dimethyl-4-oxo-2-thio-1-imidazolidinyl}-2-fluoro-N-methyl benzamide]
5.73 | 4.58 | [2H]C([2H])([2H])C1(C([2H])([2H])[2H])C(=O)N(c2ccc(C#N)c(C(F)(F)F)c2)C(=S)N1c1ccc(C(=O)NC)c(F)c1 [Example 9, 4-{7-[4-cyano-3-(trifluoromethyl)phenyl]-5,5-hexadeuterodimethyl-4-oxo-2-thio-1-imidazolidinyl}-2-fluoro-N-methyl benzamide]
